The other results are listed elsewhere or left out. At the low end of the ranking the order means little.
These sequences were tested against T1, GST-Rok-C97-191 (UniProt O34857) (assay: protein binding microarray). Conditions: Rok is a gene silencer of Bacillus subtilis; high values mean tight binding; most listed sequences are background and not binding sites; double strand, one strand shown.
T1 sequence: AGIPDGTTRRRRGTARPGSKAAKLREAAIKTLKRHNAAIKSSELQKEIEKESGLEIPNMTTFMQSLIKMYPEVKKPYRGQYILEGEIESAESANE
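Further: rank score from −0.5 (least bound) to 0.5 (best bound).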

Sequence | binding signal [E-score]
AGGTATTC | -0.0121
CATAGGAC | 0.15
CTTTTGAA | -0.0177
CCCCCGCC | -0.353
CAGGCCCA | -0.348
CAGGAATG | -0.083
ATCCACCA | 0.00743
GGTAGCCA | -0.0323
GGTTATAA | 0.0781
CCTCTCCG | -0.221
ACGACCCC | -0.0896
AACTGAGC | 0.0188
AGAAAGTA | 0.313
CCAGGACG | -0.112
ATGCCAAT | -0.01
CCCTCAGC | -0.342
AAACCCCG | -0.299
ACGTCGCG | 0.0663
CGCTTTAC | -0.24
AATAACGA | 0.169
TACAGGTA | 0.184
AATGTAGG | 0.198
AGCCGCGG | -0.194
AAAATTGT | 0.272
AATCAGGT | 0.183

Sequence | binding signal [E-score]
ACCGCTCA | -0.00862
CACATCCA | -0.0233
CTCGTGTA | -0.11
CATCAAGA | -0.0734
CTTTAAAC | 0.126
ATTTCCAA | 0.107
AAACGTAC | 0.0928
AAGGTACG | -0.121
CCGTTAAA | 0.0635
TAAGTCTA | 0.127
CGAGCGTC | -0.148
CGTCCACA | -0.0974
ACATTGCA | 0.0494
AGATTCCC | 0.0107
ACCGACAT | -0.16
ATCACGTC | -0.223
CTACAGTA | 0.235
GCTAACTA | 0.324
GAGGGCGC | -0.306
CGCAATAC | 0.0892
ATGATATG | 0.226
GAGGGCAC | -0.304
AATCCGCG | -0.0425
ATAGAAAA | 0.267
ACCTTCAA | -0.121

Sequence | binding signal [E-score]
CGAGTGAG | -0.0199
CCCACTTC | -0.179
CCTCAAGG | -0.331
ATCATGGA | -0.000195
CGAGGAAA | -0.193
TCGACGCA | 0.0176
CCACACTC | -0.323
ATTGCCAG | 0.03
GACTGAGC | -0.0475
ATGGTAAT | 0.253
CACGCGTA | -0.079
GGGAGGGA | -0.221
CCAACTCC | -0.177
AGCTCGAA | -0.102
AGAGTCAC | -0.277
CTTCGTCC | -0.209
CGTATGGA | -0.0296
TACCCCTA | 0.0755
GTCTTAAC | -0.294
TAATGCAA | 0.186
CCCGCGCA | -0.211
CCAAGTCG | -0.0866
AGGCTCAA | -0.315
ATCCCAAA | 0.024
ATGCACGA | -0.0316

Sequence | binding signal [E-score]
CCTGAACC | -0.277
ATAGCACG | 0.0885
GTCGGCAA | -0.13
AGTGTAAT | 0.179
ACCTCTGG | -0.202
AGTTTGCA | 0.133
TTAAGGAA | -0.117
GTAGTAAA | 0.338
AACTGGTC | 0.000777
CAATTCAA | 0.00242
CCCCAGCG | -0.232
ACTATGTC | 0.0678
AGTACCTG | -0.0538
CCGACATA | 0.152
ATGCGTTG | -0.0732
GTGATGTA | 0.0843
CCCAATGA | -0.194
GGCGCGAC | -0.141
ACGACCGA | 0.00138
GCACCTGA | -0.175
ACTTCGCG | -0.0968
CGAGAAAA | 0.0987
TACTTAAA | 0.198
GTTAGAAA | 0.195
ACCATACT | 0.144

Sequence | binding signal [E-score]
AGCTCGCA | -0.0853
GCAACAGC | -0.159
CAATGGTG | -0.119
ACTCGCAA | 0.0586
CGGCCCGA | -0.245
AACATGTG | 0.0826
GGTCCTAC | -0.119
GCCCGATA | 0.00316
GCCAGCAA | 0.118
CAGCGAAA | 0.0919
AATTTAAG | 0.175
CGAACTAC | 0.373
AAATCTTG | 0.0764
AGGTATAG | 0.231
GCCCGGAC | -0.205
CTCCCCTA | -0.243
CATGGGTC | -0.0107
TCCCTACA | -0.107
CGTGTTTA | 0.0983
TAATCTCA | 0.179
ATGCTGTG | 0.144
GGTATTAC | 0.212
TCAGAAAA | -0.198
AAGGTTGG | -0.0102
AGGGGAGC | -0.22

Sequence | binding signal [E-score]
ATGGAGGG | -0.27
AGACACCT | -0.181
CACCAACA | -0.0417
TAAACTGA | 0.0784
AGGGGTAG | 0.126
GAATCTAA | 0.188
CCCGCCAC | -0.275
TAACTTGA | 0.0586
TATACGGA | 0.265
AGTACAAG | 0.247
AGGAGGCC | -0.23
CCCAGTAG | 0.245
ACGTGTTG | 0.0125
TAAAAACA | 0.162
ATGGTCAG | -0.115
ACCCTGGA | -0.0883
CCTACGTC | -0.139
CTCGCAAG | -0.188
GGATTTTA | 0.227
ACTGGGTA | 0.0664
ACGCGTGG | -0.123
CCACGATC | -0.147
AGGGGGTC | -0.461
AGTACGGA | 0.164
AAAACGCT | -0.0297

Sequence | binding signal [E-score]
ACTCGAGA | 0.0428
CGCTCCTA | 0.0547
AACCAGGT | -0.261
ATCTCTGG | 0.0266
CCTCCTGA | -0.379
GCAAGCCC | -0.184
GCCCACTA | -0.0546
AGCTAACG | 0.0382
GGTTTTCA | -0.0782
AAGTCATC | -0.0329
AGATACAC | 0.237
GCCCACGA | -0.34
CCCGGATA | -0.219
AGCCTGCG | -0.0945
ACCCTGAA | -0.141
CCTAGTGA | 0.00582
AGGTAAAA | 0.262
AATCCCCG | -0.183
GGAGAACA | 0.0429
CGCAGTGC | 0.00602
ATTGGCGG | -0.101
CATTGTGG | -0.0759
